Results as given in PubChem BioAssay AID1476 (National Center for Advancing Translational Sciences (NCATS), 2009).
Hit rate of the full screen: of about 200,000 compounds, about 4,500 (2.2%) were called active. The shares of active, inactive and inconclusive entries below differ from those in the screen. Calls come from the whole dose curve; as a rule, active = well fitted inhibition curve with a large enough effect; inconclusive = small, poorly fitted or top-dose-only effect, or effect the other way; inactive = flat fitted curve, though single readings scatter. Where the call is inconclusive, the potency comes from a doubtful curve fit.

target: Cruzipain (Trypanosoma cruzi) (UniProt P25779); assay: qHTS Assay for Promiscuous and Specific Inhibitors of Cruzain (without detergent); conditions: purified cruzain, Z-FR-AMC fluorescence, no detergent; note: nearly all actives have a fitted effect of over 40% in size;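 for max response, negative = inhibition: plate controls were enzyme without inhibitor for no effect and buffer without enzyme for full effect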
In short: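 Detergent-free condition (0.00005% Triton X-100) in acetate buffer pH 5.5 with DTT. 1.5 nM enzyme and compound were pre-mixed 15 min, then 2 uM Z-FR-AMC substrate added; reaction progress from fluorescence change between first and third reads (60 s).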
Potency is the fitted concentration of half-maximal effect; tags give direction and shape of the fitted curve.

Chain of UniProt P25779 (P25779 whole entry, looked up): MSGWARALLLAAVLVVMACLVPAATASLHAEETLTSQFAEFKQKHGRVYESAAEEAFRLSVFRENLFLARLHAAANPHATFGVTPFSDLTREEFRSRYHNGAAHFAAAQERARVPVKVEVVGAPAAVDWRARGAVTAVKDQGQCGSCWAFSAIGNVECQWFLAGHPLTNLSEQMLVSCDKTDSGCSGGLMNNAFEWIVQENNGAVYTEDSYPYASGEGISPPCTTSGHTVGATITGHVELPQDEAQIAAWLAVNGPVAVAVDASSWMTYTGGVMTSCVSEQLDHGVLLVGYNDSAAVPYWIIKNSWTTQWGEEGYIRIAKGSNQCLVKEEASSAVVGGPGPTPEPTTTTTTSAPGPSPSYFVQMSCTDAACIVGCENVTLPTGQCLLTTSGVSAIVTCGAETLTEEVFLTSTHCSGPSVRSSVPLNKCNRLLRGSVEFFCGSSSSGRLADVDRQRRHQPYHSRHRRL

**Q.** For `C/C=C(/C)C#N`, which max response, negative = inhibition is on record?
**A.** inactive: 9.69%

**Q.** For `COc1ccc(NC(=O)c2ccc3ccccc3n2)cc1S(=O)(=O)Nc1ccccc1Cl`, which Potency is on record?
**A.** active: 12.6 µM

**Q.** How did the max response, negative = inhibition turn out when `COc1ccccc1-c1noc(-c2ccc(NC(C)C)c([N+](=O)[O-])c2)n1` was run?
**A.** inactive: 15.8%

**Q.** Which max response, negative = inhibition does the source give for `COc1ccc(Cn2c(=O)[nH]c3cc(C(=O)N4CCN(c5cc(Cl)ccc5C)CC4)ccc3c2=O)cc1` here?
**A.** inactive: 5.38%

**Q.** `Cc1ccccc1NC(=O)c1sc2nc3c(cc2c1N)CCCC3` was tested. Which max response, negative = inhibition did it give?
**A.** inactive: 9.43%

**Q.** Which Potency does the source give for `CCc1ccc(CN2C(=O)c3ccccc3C2C(=O)NCCc2ccc(OC)c(OC)c2)cc1` (stereo not drawn) here?
**A.** inconclusive: 39.8 µM [activator, single point]

**Q.** For `COc1cccc(NC(=O)CSc2nc3ccccc3nc2N2CCOCC2)c1`, which Potency is on record?
**A.** inconclusive: 31.6 µM [activator, single point]

**Q.** For `Cc1cc2nc(-c3ccc(SCC(=O)N4CCc5ccccc54)nc3)[nH]c2cc1C`, which Potency is on record?
**A.** active: 15.8 µM

**Q.** Which Potency does the source give for `CCCCn1c2ccc(F)cc2c2nnc(SCCN(CC)CC)nc21` here?
**A.** active: 20 µM

**Q.** `Cc1ccc(CNC(=O)c2c3c(nc4ccccc24)C(=O)N(C2CCCCC2)C3)cc1` was tested. Which max response, negative = inhibition did it give?
**A.** inactive: -6.51%

**Q.** With `COc1ccc(NC(=O)C(NC(=O)Cc2cccs2)c2ccc(C)cc2)cc1` (stereo not drawn) as the molecule, how does the Potency read?
**A.** inconclusive: 39.8 µM [inhibitor, single point]

**Q.** With `CC(=O)Oc1cccc(/C=c2\sc3nc(-c4ccco4)nn3c2=O)c1` as the molecule, how does the Potency read?
**A.** inconclusive: 10 µM [activator, single point]

**Q.** Which max response, negative = inhibition does the source give for `Cc1ccc(C(=O)Nc2c(C(=O)NCc3ccc(Cl)cc3)sc3nc(C)cc(C)c23)cc1` here?
**A.** inactive: -6.06%

**Q.** With `CCOc1cc(/C=N/O)ccc1OCC(=O)Nc1cccc(C)c1` as the molecule, how does the Potency read?
**A.** inconclusive: 25.1 µM [inhibitor, single point]

**Q.** `CCn1c(CNC(=O)COc2ccc(C(C)C)cc2)nnc1SCC(=O)Nc1ccccc1` was tested. Which Potency did it give?
**A.** inconclusive: 31.6 µM [activator, single point]

**Q.** Which Potency does the source give for `CC1(C)CC(n2c(NCCO)nc3c(c2=O)C2(CCCC2)Cc2ccccc2-3)CCO1` (stereo not drawn) here?
**A.** inconclusive: 20 µM [activator, partial curve]

**Q.** With `CC(=O)Nc1ccc(Sc2ncnc3scc(-c4ccccc4)c23)cc1` as the molecule, how does the Potency read?
**A.** inconclusive: 31.6 µM [activator, single point]

**Q.** `CNC(=S)N/N=C/c1cn(Cc2ccc(C)cc2)c2ccccc12` was tested. Which Potency did it give?
**A.** inconclusive: 25.1 µM [inhibitor, partial curve, poor fit]

**Q.** How did the Potency turn out when `CCN(CC)S(=O)(=O)c1cc(NC(=O)C(C)OC(=O)c2[nH]c(C)c(C(C)=O)c2C)ccc1C` (stereo not drawn) was run?
**A.** inconclusive: 39.8 µM [activator, single point]

**Q.** With `CC(C)Oc1cccc(C(=O)NC(=S)Nc2ccc3c4c(cccc24)CC3)c1` as the molecule, how does the Potency read?
**A.** inconclusive: 39.8 µM [inhibitor, single point]

**Q.** For `O=C1NC(=Nc2cccc(Cl)c2)SC1Cc1cccc(Cl)c1Cl` (stereo not drawn), which Potency is on record?
**A.** inconclusive: 39.8 µM [inhibitor, single point]

**Q.** How did the max response, negative = inhibition turn out when `COc1ccc(NC(=S)Nc2cccc([N+](=O)[O-])c2)cc1` was run?
**A.** inactive: -10%

**Q.** `Cc1nn(C(=O)c2ccco2)c(C)c1Sc1ccc([N+](=O)[O-])cc1` was tested. Which Potency did it give?
**A.** inconclusive: 31.6 µM [inhibitor, single point]

**Q.** How did the max response, negative = inhibition turn out when `CN1C(=O)C(C)(C)c2cc(S(=O)(=O)NCc3ccc(C(=O)Nc4ccc(Cl)cc4)cc3)ccc21` was run?
**A.** inactive: -16.4%

**Q.** How did the Potency turn out when `S=C(NCc1ccc(Cl)cc1)Nc1ccc(Cl)cc1Cl` was run?
**A.** inconclusive: 39.8 µM [inhibitor, single point]

**Q.** How did the Potency turn out when `COc1ccc(N2C(=O)CC(S/C(N)=N/N=C/c3ccnc4ccccc34)C2=O)cc1` (stereo not drawn) was run?
**A.** active: 10 µM

**Q.** How did the max response, negative = inhibition turn out when `COC(=O)CN1C(=O)CSc2ccc(S(=O)(=O)N3CCOCC3)cc21` was run?
**A.** inactive: 12%

**Q.** `CCCCC(=O)c1c(C)cc(C)[nH]c1=O` was tested. Which Potency did it give?
**A.** inconclusive: 39.8 µM [activator, single point]

**Q.** Which max response, negative = inhibition does the source give for `COC(=O)c1sccc1S(=O)(=O)N(CC(=O)NCc1ccc(C)cc1)c1ccc(Cl)cc1` here?
**A.** inactive: 19.7%

**Q.** How did the Potency turn out when `O=S(=O)(NCc1cccc(Br)c1)c1ccc(-c2cc(C(F)(F)F)on2)s1` was run?
**A.** inconclusive: 39.8 µM [inhibitor, single point]

**Q.** How did the Potency turn out when `Cc1cc(C)cc(N2C(=O)N(CC(=O)c3ccc(Br)cc3)c3ccccc3S2(=O)=O)c1` was run?
**A.** inconclusive: 15.8 µM [inhibitor, partial curve, poor fit]

**Q.** `CCOC(=O)c1sc(NC(=O)c2ccccc2F)c(C(N)=O)c1C` was tested. Which Potency did it give?
**A.** inconclusive: 31.6 µM [activator, single point]

**Q.** Which Potency does the source give for `Cc1ccc(-n2[nH]c(C)c(C=Nc3ccc4[nH]c(=O)[nH]c4c3)c2=O)cc1C` here?
**A.** inconclusive: 39.8 µM [activator, single point]

**Q.** With `COc1cc(OC)cc(C(=O)NC2CCN(C(=O)N3c4ccccc4Sc4ccccc43)CC2)c1` as the molecule, how does the Potency read?
**A.** inconclusive: 39.8 µM [inhibitor, single point]

**Q.** For `N#CC(C#N)=C1C=CC=CN1/C(=C\c1ccco1)C(=O)c1ccc(-c2ccccc2)cc1`, which Potency is on record?
**A.** inconclusive: 39.8 µM [inhibitor, single point]

**Q.** How did the max response, negative = inhibition turn out when `COc1ccc(-n2nc(C(=O)Nc3cccc(C(F)(F)F)c3)c3c4ccccc4n(C)c3c2=O)cc1` was run?
**A.** inactive: -9.34%

**Q.** With `CN(C(=O)CSc1nc(C2CC2)nc2ccccc12)c1nc(-c2ccccc2)cs1` as the molecule, how does the Potency read?
**A.** active: 3.16 µM

**Q.** For `CC(C)(C)OC(=O)N1CCC[C@H]1c1nnc(SC/C=C/c2ccccc2)o1`, which Potency is on record?
**A.** inconclusive: 25.1 µM [activator, single point]

**Q.** Which Potency does the source give for `CCN(CC)S(=O)(=O)c1cccc(-c2nn(-c3ccccc3)cc2/C=C(\C#N)C(=O)NCc2ccco2)c1` here?
**A.** inconclusive: 25.1 µM [inhibitor, single point]

**Q.** For `COc1ccc(S(=O)(=O)NCCc2csc(-c3ccc(F)cc3)n2)cc1`, which max response, negative = inhibition is on record?
**A.** inactive: 0.597%

**Q.** For `O=C(CSC1=Nc2ccccc2C2=NC(Cc3ccccc3)C(=O)N12)Nc1ccccc1F` (stereo not drawn), which Potency is on record?
**A.** inconclusive: 10 µM [activator, partial curve, poor fit]

**Q.** `CSc1nc2sc3c(c2c(=O)n1-c1ccc(F)c(Cl)c1)CCN(C(C)=O)C3` was tested. Which max response, negative = inhibition did it give?
**A.** inactive: 4.57%

**Q.** With `O=C1CN(C(=O)c2ccc(Br)o2)C(c2ccccc2)c2cc(Br)ccc2N1` (stereo not drawn) as the molecule, how does the Potency read?
**A.** inconclusive: 39.8 µM [inhibitor, single point]

**Q.** For `COC(=O)c1sccc1NC(=O)c1cc(-c2ccc(C)cc2)nc2ccccc12`, which Potency is on record?
**A.** inconclusive: 31.6 µM [inhibitor, single point]

**Q.** Which Potency does the source give for `CCOc1ccc(-c2nc(SCC(=O)NCCOC)c(-c3ccc(OC)c(OC)c3)[nH]2)cc1` here?
**A.** inconclusive: 39.8 µM [activator, single point]

**Q.** How did the Potency turn out when `Oc1c(Br)cc2oc3c(c2c1CNCc1ccccc1)CCCC3` was run?
**A.** active: 31.6 µM

**Q.** Which Potency does the source give for `CCCCCCn1c(SCCCC)nc2c1c(=O)[nH]c(=O)n2C` here?
**A.** inconclusive: 20 µM [inhibitor, partial curve]

**Q.** `CC(Oc1ccccc1)C(=O)NC1CC(C)(C)NC(C)(C)C1` (stereo not drawn) was tested. Which Potency did it give?
**A.** inconclusive: 12.6 µM [inhibitor, partial curve, poor fit]

**Q.** Which Potency does the source give for `CCN(c1ccc(OC)cc1)S(=O)(=O)c1ccc2c(c1)CCN2C(=O)CCC(=O)O` here?
**A.** inconclusive: 39.8 µM [activator, single point]

**Q.** With `CCN(CC)CCOc1ncnc2c1oc1ccccc12` as the molecule, how does the max response, negative = inhibition read?
**A.** inactive: -0.937%

**Q.** With `O=C(Nc1ccccc1)N1CCCC2(CCN(C(=O)c3cc(C(F)(F)F)cc(C(F)(F)F)c3)CC2)C1` as the molecule, how does the Potency read?
**A.** inconclusive: 31.6 µM [activator, single point]

**Q.** How did the Potency turn out when `Cc1ccc(NC(=O)C2C3CCCC2C3c2ccccc2)cc1` (stereo not drawn) was run?
**A.** inconclusive: 25.1 µM [inhibitor, single point]

**Q.** With `CCCNC(=O)CSc1nc2nc(C)c(Cc3ccccc3Cl)c(C)n2n1` as the molecule, how does the max response, negative = inhibition read?
**A.** inactive: -3.13%

**Q.** For `Cc1cc(F)ccc1NCc1ccccc1-c1nnc(-c2ccccc2Cl)o1`, which max response, negative = inhibition is on record?
**A.** inactive: -25.3%

**Q.** With `O=C(CS(=O)(=O)Cc1ccccc1)Nc1nnc(C2CCCCC2)s1` as the molecule, how does the max response, negative = inhibition read?
**A.** inactive: 26.8%

**Q.** `O=C(c1ccc2c(c1)N(Cc1ccccc1F)C(=O)c1ccccc1S2(=O)=O)N1CCCC1` was tested. Which Potency did it give?
**A.** inconclusive: 31.6 µM [activator, single point]

**Q.** With `COc1ccc(OC)c(CNC(=O)Cc2ccc(NC(=O)N3CCCCc4ccccc43)cc2)c1` as the molecule, how does the max response, negative = inhibition read?
**A.** inactive: 3.34%

**Q.** For `CCn1c2ccccc2c2cc(NC(=O)c3ccc(C)c([N+](=O)[O-])c3)ccc21`, which Potency is on record?
**A.** active: 25.1 µM

**Q.** How did the Potency turn out when `CC(C)Cc1csc(NC(=O)c2ccc(F)cc2)c1C(=O)O` was run?
**A.** inconclusive: 39.8 µM [inhibitor, single point]

**Q.** For `O=C(N/N=C/c1ccc2c(c1)OCO2)c1sc2cccc(Cl)c2c1Cl`, which Potency is on record?
**A.** inconclusive: 39.8 µM [inhibitor, single point]

**Q.** Which max response, negative = inhibition does the source give for `CC(NC(=O)CCCn1c(=O)c2cccn2c2cccnc21)c1ccccc1` (stereo not drawn) here?
**A.** inactive: -0.965%

**Q.** How did the Potency turn out when `Cc1cc(-c2csc(NC(=O)c3ccc(C#N)cc3)n2)c(C)n1Cc1ccco1` was run?
**A.** active: 7.94 µM

**Q.** How did the Potency turn out when `Cc1ccccc1OCCn1c(CCNC(=O)C(C)(C)C)nc2ccccc21` was run?
**A.** inconclusive: 39.8 µM [activator, single point]

**Q.** How did the max response, negative = inhibition turn out when `COc1ccc(C(C)C)cc1S(=O)(=O)NCCc1c(C)[nH]c2ccc(C)cc12` was run?
**A.** inactive: -1.13%

**Q.** `O=S(=O)(O)c1ccc(O)c2ncccc12.O=S(=O)(O)c1ccc(O)c2ncccc12.[Zn]` was tested. Which Potency did it give?
**A.** active: 3.16 µM

**Q.** For `CC1Cc2ccccc2N1C(=O)Cn1nnc(-c2ccccc2NC(=O)C2CCC2)n1` (stereo not drawn), which Potency is on record?
**A.** inconclusive: 20 µM [inhibitor, partial curve]

**Q.** Which max response, negative = inhibition does the source give for `N=C(N)S/C=C\C(=O)O` here?
**A.** inactive: 3%

**Q.** Which Potency does the source give for `Cc1cccc(N=Nc2ccc(O)c3ncccc23)c1` here?
**A.** active: 20 µM
